The whole screen tested about 360,000 compounds, of which about 25,000 (6.9%) were called active. The inconclusive results got no clear call from the source; some entries with a clear call stand among them for comparison. The call rests on the fitted dose curve; in most records, active means well fitted inhibition curve with a large enough effect; inconclusive means small, poorly fitted or top-dose-only effect; inactive means flat fitted curve, though single readings scatter. Potencies beside an inconclusive call are fits to weak or partial responses and may not hold up.
Target: Luciferin 4-monooxygenase (Photinus pyralis) (UniProt P08659)
Sequence of UniProt P08659 (P08659 whole entry, looked up): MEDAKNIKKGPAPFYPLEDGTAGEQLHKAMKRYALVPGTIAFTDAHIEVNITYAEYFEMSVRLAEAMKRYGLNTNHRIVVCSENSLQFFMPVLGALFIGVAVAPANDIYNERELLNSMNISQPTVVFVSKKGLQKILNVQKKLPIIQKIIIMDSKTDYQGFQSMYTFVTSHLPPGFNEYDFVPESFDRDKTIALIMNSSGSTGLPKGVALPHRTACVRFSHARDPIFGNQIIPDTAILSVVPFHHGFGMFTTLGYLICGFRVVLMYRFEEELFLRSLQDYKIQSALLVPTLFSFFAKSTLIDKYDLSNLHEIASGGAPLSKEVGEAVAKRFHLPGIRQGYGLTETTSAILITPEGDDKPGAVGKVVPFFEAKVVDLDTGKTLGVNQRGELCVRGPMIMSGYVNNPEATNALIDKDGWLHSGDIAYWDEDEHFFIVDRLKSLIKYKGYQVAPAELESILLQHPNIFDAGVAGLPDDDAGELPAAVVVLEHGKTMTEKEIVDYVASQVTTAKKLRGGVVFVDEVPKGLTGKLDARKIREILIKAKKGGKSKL
Assay: qHTS profiling assay for firefly luciferase inhibitor/activator using purifed enzyme and Km concentrations of substrates (counterscreen for miR-21 project); further: nearly all actives have a fitted effect of over 55% in size;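 on activity change, negative = inhibition: plate controls were vehicle for no effect and reference inhibitor for full effect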
Conditions: purified FLuc, luminescence inhibition; series mostly up to 57.5 µM; activity change, negative = inhibition: at the top concentration
Method in brief: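 Biochemical qHTS of compounds, final roughly 60 µM downward over six points, against 10 nM purified firefly luciferase using Km concentrations of substrates (10 uM D-luciferin, 10 uM ATP) in Tris acetate pH 7.5 buffer; luminescence output.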
Potency means the concentration at half of the fitted maximal effect; tags describe the fitted curve by direction and shape.

| SMILES | Potency | activity change, negative = inhibition |
| --- | --- | --- |
| COc1ccc(-n2cnc3ccccc32)cc1 | inconclusive: 21.3 µM [inhibitor, single point] |  |
| Cc1c2c(=O)n(-c3nc4ccccc4s3)nc-2cc(O)n1Cc1ccccc1 | active: 6.75 µM |  |
| CCCOc1ccc(-c2cnc(SCC(N)=O)nc2N)cc1 |  | inactive: -12.9% |
| C=CCn1c(O)c(N=NC(=O)c2ccc3c(c2)OCO3)c2ccccc21 | active: 3.01 µM |  |
| O=C(OCC(=O)N1CCOCC1)c1c(Cl)ccc(Cl)c1Cl | inconclusive: 21.3 µM [inhibitor, partial curve, poor fit] |  |
| COc1ccc(-c2noc(C3CCCN(C(=O)c4ccccc4OC)C3)n2)cc1OC (stereo not given) | inconclusive: 26.9 µM [inhibitor, partial curve] |  |
| COc1ccc(C)cc1NC(=O)c1cc(S(=O)(=O)N2CCc3ccccc3C2)ccc1F |  | inactive: 1.33% |
| CCCOc1ccc(C(=O)NCc2ccco2)cc1 | inconclusive: 26.9 µM [inhibitor, single point] |  |
| Cc1oc(-c2ccc(C(=O)NCc3ccccc3Cl)cc2)nc1CN1CCc2ccccc21 |  | inactive: -5.58% |
| Oc1ccc(Br)cc1-c1nc2cnccn2c1NC1CCCC1 |  | inactive: 4.9% |
| Cc1ccc2c(c1)-c1nc3ccccc3cc1C2=NC1CCCCC1 | active: 10.7 µM |  |
| CCOC(=O)C1=NN(C(=O)COc2ccccc2)C(O)(c2ccc(Br)cc2)C1 (stereo not given) | inconclusive: 0.0107 µM [inhibitor, partial curve, poor fit] |  |
| CCOC(=O)Nc1ccc2c(c1)nc1n2CCN(CCOC)C1 | inconclusive: 30.1 µM [inhibitor, partial curve, poor fit] |  |
| CCc1ccc(N2CSC3=C(C#N)C(c4cccs4)CC(=O)N3C2)cc1 (stereo not given) | inconclusive: 23.9 µM [inhibitor, single point] |  |
| COc1ccc2c(c1)O[C@H](c1ccc3c(c1)OCO3)[C@@H](O)C2=O | inconclusive: 16.9 µM [inhibitor, partial curve, poor fit] |  |
| NNc1nc2c(-c3cccc(C(F)(F)F)c3)nnn2c2ccccc12 | inconclusive: 6.75 µM [inhibitor, partial curve, poor fit] |  |
| COCC(C)n1c(C)cc(C(=O)CSc2nc3ccccc3c(=O)[nH]2)c1C (stereo not given) | inconclusive: 21.3 µM [inhibitor, partial curve] |  |
| c1ccc(Nc2ncnc3sccc23)cc1 | inconclusive: 26.9 µM [inhibitor, partial curve, poor fit] |  |
| COc1ccc2c(c1)CC/C(=C\C=C\c1ccccc1)C2=O | active: 2.69 µM |  |
| N#CCSc1ccccc1NC(=O)CN1C(=O)C2CC=CCC2C1=O (stereo not given) |  | inactive: 0.0122% |
| CSC(=S)N/N=C/c1c[nH]c2ccccc12 | inconclusive: 23.9 µM [inhibitor, partial curve, poor fit] |  |
| CC(C)c1ccc(NC(=O)c2ccc3c(O)c(S(=O)(=O)c4ccccc4)c(=O)[nH]c3c2)cc1 | active: 1.51 µM |  |
| COc1ccc(NC(=O)N2CCCC(c3ccccc3)C2)cc1 (stereo not given) | inconclusive: 23.9 µM [inhibitor, partial curve] |  |
| Cc1ccc(-n2nc(C(=O)N(C)Cc3ccccc3)c3c4ccccc4n(C)c3c2=O)cc1 |  | inactive: -17.8% |

| SMILES | Potency | activity change, negative = inhibition |
| --- | --- | --- |
| Cc1ccc(S(=O)(=O)/N=C2/C=C(Sc3ncn[nH]3)C(=O)c3ccccc32)c(C)c1 | inconclusive: 37.9 µM [inhibitor, partial curve, poor fit] |  |
| Cc1ccc(C2=NN(C(=S)Nc3ccccc3)C(c3ccco3)C2)cc1 (stereo not given) | active: 7.57 µM |  |
| CN(C(=O)c1ccccc1C(=O)OCC(=O)c1ccc(F)cc1)c1ccccc1 | inconclusive: 15.1 µM [inhibitor, partial curve, poor fit] |  |
| CSc1cccc(NC(=O)CSc2ccc(Cl)cc2)c1 | inconclusive: 26.9 µM [inhibitor, partial curve, poor fit] |  |
| CC(C)(C)NC(=O)C(=O)N/N=C/c1ccc(Br)cc1 | inconclusive: 12 µM [inhibitor, partial curve, poor fit] |  |
| COc1cc(OC)c(C(=O)Nc2cccc(C(C)=O)c2)cc1OC | active: 13.5 µM |  |
| CCc1c(C(=O)Nc2ccccc2C(N)=O)csc1C | inconclusive: 26.9 µM [inhibitor, single point] |  |
| CNc1nc2ccccc2n1CC(=O)c1ccccc1 | inconclusive: 30.1 µM [inhibitor, partial curve, poor fit] |  |
| O=C(Cc1noc2ccccc12)Nc1ccc(Cl)cc1 | inconclusive: 21.3 µM [inhibitor, single point] |  |
| O=C(COc1ccc2c3c(c(=O)oc2c1)CCC3)N1CCN(c2ccccc2)CC1 | inconclusive: 30.1 µM [inhibitor, partial curve, poor fit] |  |
| Cc1cc2nc(C3CCN(C(=S)NCCCOC(C)C)CC3)[nH]c2cc1C | inconclusive: 23.9 µM [inhibitor, single point] |  |
| CC(=NCc1ccc2c(c1)OCO2)C1=C(O)c2ccccc2C1=O | inconclusive: 19 µM [inhibitor, partial curve] |  |
| CCOC(=O)C1(CC2CCCCO2)CCN(C(=O)Nc2ccc(C)c(C)c2)CC1 (stereo not given) | inconclusive: 19 µM [inhibitor, partial curve] |  |
| Cc1ccnc(N/C=C(/NC(=O)c2ccccc2)C(=O)N/N=C\c2ccc(Cl)cc2)n1 | inconclusive: 26.9 µM [inhibitor, single point] |  |
| Cc1ccc(-c2nc(CSCC(=O)NCC3CCCO3)c(C)o2)cc1 (stereo not given) | inconclusive: 19 µM [inhibitor, partial curve] |  |
| CCCCc1c(O)n2c(nc3ccccc32)[nH]c1=O | inconclusive: 23.9 µM [inhibitor, single point] |  |
| O=C(COc1ccc(Br)cc1Cl)NC(=S)N1CCc2ccccc21 | inconclusive: 7.57 µM [inhibitor, single point] |  |
| CCOc1ccc(CCNC(=O)C2CCN(c3nn4c(=O)cc(C)nc4s3)CC2)cc1 |  | inactive: -0.556% |
| Brc1ccc(/C=N/Nc2ccccc2)cc1 | active: 16.9 µM |  |
| CC(=O)c1ccc(NC(=O)CSc2nnc(N)s2)cc1 | inconclusive: 30.1 µM [inhibitor, partial curve, poor fit] |  |
| O=C(CC(C(=O)O)c1c[nH]c2ccccc12)c1ccccc1 (stereo not given) | inconclusive: 16.9 µM [inhibitor, partial curve] |  |
| CCOC(=O)c1c(C)[nH]c(O)c1C=Nc1ccccc1 | inconclusive: 37.9 µM [inhibitor, partial curve, poor fit] |  |
| NC(=S)N/N=C/c1cccc(O)c1O | inconclusive: 26.9 µM [inhibitor, partial curve, poor fit] |  |
| Cc1cc(C)cc(-n2c(SCC(=O)N3CCCCCC3)nc3c([nH]c4ccccc43)c2=O)c1 |  | inactive: -0.796% |

| SMILES | Potency | activity change, negative = inhibition |
| --- | --- | --- |
| CC1CCCC(C)N1/N=C/C=C/c1ccccc1[N+](=O)[O-] (stereo not given) | inconclusive: 37.9 µM [inhibitor, single point] |  |
| Cc1cccc(/C=N/NC(=O)NC2CCCCC2)c1 | inconclusive: 37.9 µM [inhibitor, partial curve, poor fit] |  |
| O=C(Nc1nc(-c2ccccn2)cs1)C12CC3CC(CC(O)(C3)C1)C2 | active: 6.75 µM |  |
| O=C(c1ccc(CS(=O)Cc2cccc(Cl)c2)o1)N1CCN(C2CCCCC2)CC1 (stereo not given) |  | inactive: -0.18% |
| CCC1CCC(c2nnc(-c3ccc(Br)cc3)o2)CC1 (stereo not given) | inconclusive: 26.9 µM [inhibitor, single point] |  |
| Cc1ccc(N2C(=O)C3C(C2=O)C2C=CC3C23CC3)c([N+](=O)[O-])c1 (stereo not given) | inconclusive: 37.9 µM [inhibitor, partial curve, poor fit] |  |
| COc1ccc(Br)cc1/C=C/C(=O)c1ccc(NC(C)=O)cc1 |  | inactive: 3.06% |
| Cc1ccc(C)n1-c1nc(=S)[nH][nH]1 | inconclusive: 21.3 µM [inhibitor, partial curve, poor fit] |  |
| COCCn1c(Cc2ccccc2)nnc1SCC(=O)Nc1oc(C)c2c(C)n[nH]c(=O)c12 |  | inactive: 8.56% |
| CCc1ccc(-c2nnn(CCC(=O)OC)n2)cc1 | active: 15.1 µM |  |
| O=C(Nc1ccc2c(c1)nc1n2CCOC1)C1CCCCC1 | inconclusive: 23.9 µM [inhibitor, single point] |  |
| CC(C)(C)c1csc(NC(=O)CSC2=NCCS2)n1 | inconclusive: 37.9 µM [inhibitor, partial curve, poor fit] |  |
| Cc1ccc2c(N)c(C(=O)c3ccccc3)sc2n1 | active: 21.3 µM |  |
| O=C(CSc1nc(-c2ccc(F)cc2)nc2ccc(F)cc12)Nc1cccc(C(=O)O)c1 | inconclusive: 16.9 µM [inhibitor, partial curve] |  |
| C/C(CC(=O)Nc1ccc2c(c1)OCO2)=N\NC(=O)C(c1ccccc1)c1ccccc1 |  | inactive: 3.75% |
| Cc1[nH]n(-c2ccc(Br)cc2)c(=O)c1C=Nc1ccc(S(=O)(=O)Nc2nccs2)cc1 | inconclusive: 19 µM [inhibitor, partial curve, poor fit] |  |
| O=C(NCCC1=CCCCC1)c1cnc2n(c1=O)CCS2 | inconclusive: 26.9 µM [inhibitor, single point] |  |
| CCC1(c2ccccc2)NC(=O)N(CC(=O)Nc2ccc(OC)nc2)C1=O (stereo not given) |  | inactive: -3.47% |
| N#CCCN1CCN(C(=S)c2ccc(-c3ccc(Cl)cc3)o2)CC1 | active: 21.3 µM |  |
| CSc1ccc(/C=N/NC(=O)c2ccc(C)c(C)c2)cc1 | active: 19 µM |  |
| O=C(/C=C/c1ccc(OCc2cccc(Cl)c2)cc1)N1CCOCC1 | inconclusive: 37.9 µM [inhibitor, partial curve, poor fit] |  |
| O=c1cc(-c2ccccc2)nc2nc[nH]n12 | inconclusive: 30.1 µM [inhibitor, single point] |  |
